In PubChem BioAssay AID1721 (National Center for Advancing Translational Sciences (NCATS), 2009):
Among all 290,000 compounds or so, about 1,100 (0.38%) were called active. Inconclusive means that the source gave no clear call. Such entries were picked first, then a sample of the others. Calls come from the whole dose curve; as a rule, active = well fitted inhibition curve with a large enough effect; inconclusive = small, poorly fitted or top-dose-only effect, or another doubt; inactive = no such curve, though single readings can be large or run the other way. A potency beside an inconclusive call is a rough fit, not a confirmed value.

target: Pyruvate kinase (Leishmania mexicana) (UniProt Q27686); assay: qHTS Assay for Inhibitors of Leishmania Mexicana Pyruvate Kinase (LmPK); conditions: purified LmPK, Kinase-Glo ATP luminescence, 1 h; series mostly up to 57.5 µM
Procedure, shortened: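 Purified LmPK (0.1 nM) with 0.5 mM PEP and 0.1 mM ADP in imidazole buffer pH 7.2 with MgCl2/KCl, 1 h at room temperature. ATP formed was read by luciferase luminescence and normalized to no-enzyme and uninhibited controls.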
Potency is the fitted concentration of half-maximal effect; tags give direction and shape of the fitted curve.

Sequence of UniProt Q27686 (Q27686 whole entry, looked up): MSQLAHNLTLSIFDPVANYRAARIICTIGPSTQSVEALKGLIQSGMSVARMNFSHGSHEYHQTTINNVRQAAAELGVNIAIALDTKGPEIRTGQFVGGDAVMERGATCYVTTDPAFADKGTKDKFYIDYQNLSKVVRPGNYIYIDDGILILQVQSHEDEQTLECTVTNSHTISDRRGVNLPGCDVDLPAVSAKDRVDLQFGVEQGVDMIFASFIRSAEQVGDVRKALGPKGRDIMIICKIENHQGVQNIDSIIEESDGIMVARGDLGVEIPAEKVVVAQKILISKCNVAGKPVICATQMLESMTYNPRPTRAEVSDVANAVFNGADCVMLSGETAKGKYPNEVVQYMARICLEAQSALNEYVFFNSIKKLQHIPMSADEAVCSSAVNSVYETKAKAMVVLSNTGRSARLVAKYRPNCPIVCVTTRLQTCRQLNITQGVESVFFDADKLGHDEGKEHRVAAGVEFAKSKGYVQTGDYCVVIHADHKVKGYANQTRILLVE

Row | Compound | Potency
1 | Nc1c(C(=O)O)cnc2c(-c3ccc(Cl)cc3)cnn12 | inconclusive: 31.6 µM [falling, single point]
2 | Cc1ccsc1/C=N\NC(=O)c1ccc2c(c1)OCO2 | inconclusive: 14.1 µM [falling, partial curve]
3 | COc1ccccc1-c1noc(-c2ccccc2)n1 | inconclusive: 15.8 µM [falling, partial curve]
4 | N#CCC(=O)NNc1c([N+](=O)[O-])cc(C(F)(F)F)cc1[N+](=O)[O-] | inconclusive: 25.1 µM [falling, partial curve]
5 | CCOc1ccc(N)c(SSc2cc(OCC)ccc2N)c1 | inactive
6 | CCCCCCCCc1nnc(N)s1 | inactive
7 | Cc1ccc([N+](=O)[O-])cc1-c1ccc(/C=C(\C#N)c2[nH]nc(N)c2C#N)o1 | inactive
8 | c1ccc2[nH]c(SCc3ccc(-c4nnco4)cc3)nc2c1 | inconclusive: 14.1 µM [falling, partial curve]
9 | Cc1n[nH]c(=O)nc1N/N=C/c1ccc(O)c([N+](=O)[O-])c1 | inconclusive: 14.1 µM [falling, partial curve]
10 | Cc1ccc(S(=O)(=O)c2nc(NCCN(C)C)sc2Cl)cc1 | inactive
11 | O=C(N/N=C/c1ccc2c(c1)OCO2)c1cccs1 | inconclusive: 15.8 µM [falling, partial curve]
12 | O=C1C(=Cc2cccs2)C(=O)c2ccccc21 | active: 14.1 µM
13 | COc1cccc(C(=O)Nc2ccc(NC(=O)C3CC3)cn2)c1 | inconclusive: 14.1 µM [falling, partial curve]
14 | COc1cccc(-c2n[nH]c(=S)n2Cc2ccco2)c1 | inconclusive: 14.1 µM [falling, partial curve]
15 | C=CCc1c(C)[nH]c2c(OC)cccc2c1=S | active: 2 µM
16 | COc1ccccc1/C=N/NC(=O)CC(=O)NCc1cccnc1 | inactive
17 | CC1CCCCN1S(=O)(=O)c1ccc(C(=O)Nc2nnc(C3=COCCO3)o2)cc1 (configuration not stated) | inactive
18 | Cc1ccc(COc2cccc(/C=N/NC(=O)c3nnn(-c4nonc4N)c3C)c2)cc1 | inactive
19 | COc1cccc(C(=O)Nc2nc3ccccc3[nH]2)c1 | active: 14.1 µM
20 | CCn1c(-c2csc3c2CCCC3)n[nH]c1=S | inconclusive: 14.1 µM [falling, partial curve]
21 | O=C(Nc1cccc(O)c1)C(=O)Nc1ccccn1 | active: 7.94 µM
22 | CC1=CC(=Nc2c(C)n(C)n(-c3ccccc3)c2=O)C=CC1=O | inconclusive: 31.6 µM [falling, single point]
23 | CC1C(=O)NN=C1C(=O)N/N=C/c1cccs1 (configuration not stated) | inconclusive: 28.2 µM [falling, partial curve]
24 | CCCCN(CC)CCCNC(=O)CN1C(=O)CSc2ccc(S(=O)(=O)N3CCOCC3)cc21 | inconclusive: 17.8 µM [falling, single point]
25 | CCn1c(-c2ccc3ncccc3c2)n[nH]c1=S | inconclusive: 20 µM [falling, single point]
26 | Cc1cc(NC(=O)c2ccccc2)ncc1NC(=O)c1cccs1 | inconclusive: 28.2 µM [falling, partial curve]

Row | Compound | Potency
27 | CN(C)c1cc(Cl)c2nonc2c1N | inactive
28 | N#Cc1c(Cl)nsc1NN | inconclusive: 22.4 µM [falling, partial curve]
29 | Fc1ccccc1-c1n[nH]c(=S)n1/N=C/c1c[nH]c2ccccc12 | active: 10 µM
30 | O=C1CS/C(=N/N=C/c2ccccc2OS(=O)(=O)c2ccccc2)N1 | inactive
31 | Cc1ccn2cc(-c3ccc(O)c(O)c3)nc2c1 | inconclusive: 1.26 µM [falling, full curve]
32 | CC(C)(O)C1Cc2cc(/C=C/C(=O)O)c(O)cc2O1 (configuration not stated) | active: 28.2 µM
33 | O=C(C1=C[C@H](c2ccccc2)C[C@H](OCc2ccc(CO)cc2)O1)N1CCN(Cc2ccccc2)CC1 | inactive
34 | COc1cc2nc(=S)n3[nH]c(CCn4nc(C)cc4C)nc3c2cc1OC | inconclusive: 17.8 µM [falling, partial curve]
35 | CC(C)(C)c1ccc(/C=C2\SC(=O)N(CCNC(=O)c3cccc(S(=O)(=O)N4CCOCC4)c3)C2=O)cc1 | inactive
36 | Nc1ncccc1OCc1ccc(Cl)c(Cl)c1 | inconclusive: 31.6 µM [falling, single point]
37 | Cc1ccc(Cn2ccc(NC(=O)CCSc3nc(-c4ccco4)cc(C(F)(F)F)n3)n2)cc1 | inactive
38 | N#Cc1cc(C#N)c(N2CCN(c3ccccn3)CC2)nc1N | inactive
39 | CN(C)N=Nc1ccc2nc[nH]c2c1 | inconclusive: 28.2 µM [falling, single point]
40 | O=C(Nc1cnc2ccccn2c1=O)c1ccc(Cl)cc1Cl | inconclusive: 3.98 µM [falling, full curve]
41 | COc1ccc(NC(=O)c2sc(NC(=O)COc3ccccc3)nc2C)cc1 | inconclusive: 22.4 µM [falling, partial curve]
42 | COc1ccc(N=Cc2c(O)n(C)c(=O)n(C)c2=O)cc1 | inconclusive: 28.2 µM [falling, partial curve]
43 | COc1cc(C(=O)Nc2ccc3nc4n(c(=O)c3c2)CCCC4)ccc1Br | inactive
44 | CCOC(=O)c1c(Nc2ccccc2OCCOC)n[nH]c1C | inactive
45 | COc1ccc(N(CC(=O)NC2CCCCC2)C(=O)c2ccc(C)s2)c(OC)c1 | inactive
46 | Cc1ccc(/C=N/n2cc(-c3ccccc3)[nH]c2=S)s1 | inconclusive: 10 µM [falling, partial curve]
47 | CCOC(=O)N1CCC(NC(=O)c2ccc3c(c2)sc2nc(-c4ccccc4)cn23)CC1 | inactive
48 | CC(=O)COC(=O)c1ccc2noc(-c3ccccc3)c2c1 | inactive
49 | Clc1ccccc1/C=C/c1nc(-c2ccccn2)no1 | active: 3.98 µM
50 | CCc1cc(=O)oc2cc(C)cc(OC(C)C(=O)NCc3cccnc3)c12 (configuration not stated) | inactive
51 | C(=C\c1ccco1)/c1nc2ccccc2[nH]1 | inconclusive: 39.8 µM [falling, single point]
52 | CCCOc1ccc(CSc2nc3ccccc3[nH]2)cc1 | inconclusive: 14.1 µM [falling, partial curve]
